Source: ChEMBL document CHEMBL4888484, “Replenishing the malaria drug discovery pipeline: Screening and hit evaluation of the MMV Hit Generation Library 1 (HGL1) against asexual blood stage Plasmodium falciparum ,using a nano luciferase reporter read-out” (2022)
About 540 (0.36%) of roughly 150,000 compounds showed an effect of 50% or more. Some of the results follow.

system: Plasmodium falciparum; assay: Primary screen in NF54 nanoGlo assay, in single point, at 2uM, 72h; a lower Z score goes with more inhibition; assay type: functional, Erythrocyte; details: timepoint 72 hour

Structure (SMILES) | % Inhibition | Z score
CC(C)(C)c1cnc(Cn2nc3ccccn3c2=O)o1 | 1% | -0.22
Cc1cc(OC2CN(C(=O)Cc3cccc(C(F)(F)F)c3)C2)cc(=O)n1C1CC1 | -4% | 0.46
COCc1ccc(C(=O)N2CC[C@@]3(CCCN(Cc4cccc(C)c4)C3)C2)s1 | -14% | 2.26
CN1CCN(c2ncccc2CNC(=O)c2ccc3c(N)ncnc3c2)CC1 | 0% | -0.06
Cc1csc(C(C)NC(=O)NCC(C)N(C)Cc2ccccc2)n1 (stereo unspecified) | 16% | -2.24
CCC(=O)Nc1c(C)noc1/C=C\c1ccc(S(=O)(=O)Nc2ccc(C#N)cc2)cc1 | -19% | 2.68
O=C(c1ccc(N2CCC2)nc1)N1CCOC[C@@H]1Cc1ccccc1 | -2% | 0.19
CC(=O)Nc1nc(C(=O)Nc2nc(-c3ccc(C)cc3)cs2)cs1 | 10% | -1.31
CCOCCC1(CNC(=O)C(C)(C)[C@H]2CCCN(C(=O)OC(C)(C)C)C2)CCC1 | 13% | -1.19
CCCN(C(=O)COc1cccc2c1OC(C)(C)C2)C1CCN(C(=O)c2ccccc2)CC1 | 3% | -0.4
COC[C@@H](c1ccnn1C)n1cc(-c2oc3ccc(C)cc3c2C)nn1 | -14% | 2.68
Cc1ccccc1[C@H]1CN(C(=O)CCc2c(C)noc2C)C[C@@H]1C(=O)O | -11% | 1.25
CC(C)(C)OC(=O)N1CCC2(CO)CC12 (stereo unspecified) | -11% | 1.22
CCOCc1cnc(C)nc1NCC(=O)c1c(C)[nH]c2ccccc12 | 11% | -1.56
Cc1ccc([C@H](O)CNC(=O)c2nc3c(s2)CCC3)cc1 | -6% | 1.16
CC(C)C(OC(=O)c1ccnn1C)C(=O)NC1CCOc2ccccc21 (stereo unspecified) | -5% | 0.55
CN(CCN(C)C1CC1)C(=O)[C@]12CC[C@H](CC1=O)C2(C)C | -1% | 0.25
CC(C(=O)N1CCCC1Cc1c(F)cccc1Cl)S(C)(=O)=O (stereo unspecified) | -1% | 0.07
O=C(O)c1cccc(CN(Cc2ccoc2)C2CC2)c1Cl | -12% | 2.28
Cc1cc(=O)n2ncc(C(=O)Nc3ccccc3)c2[nH]1 | -2% | 0.34
Cc1cc(C(=O)NC[C@@]2(O)C=CCCC2)no1 | 2% | -0.26
CC1(C)CCC(NC(=O)c2ncoc2C2CC2)(C(N)=O)CC1 | -9% | 1.57
CN(C)c1ccc(-c2noc(C3CCCCC3)n2)cc1 | -12% | 1.64
CN(C(=O)Cc1csc(N2CCCNC2=O)n1)c1ccc(F)cc1 | 0% | 0
O=C(CC1CCN(C(=O)c2ccccc2Cl)CC1)NCCN1CCN(Cc2ccccc2)CC1 | -7% | 1.28
CC1=Nc2ccc(Cl)cc2-c2[nH]c3ccccc3c2N1 | 6% | -1.12
Cc1cc(C(=O)Nc2ccc(NC(=O)NCc3ccco3)cc2)c2c(=O)[nH]n(C)c2n1 | -10% | 1.98

Structure (SMILES) | % Inhibition | Z score
COc1c(F)cccc1C(=O)N1CCCN2CCC[C@H]2C1 | -16% | 3.02
CCc1nc(CN2C(=O)COc3cc(S(=O)(=O)N4CCC(C)CC4)c(Cl)cc32)no1 | 0% | -0.05
CC(C)=CCN1CC2(CCN(C(=O)c3oc(C)nc3C)CC2)CC1=O | -15% | 1.7
CCCC(NC(=O)C(C)n1cncn1)C(=O)N1CCc2sccc2C1 (stereo unspecified) | -15% | 2.76
C=CCn1nc(C)c([C@H]2c3nc[nH]c3CCN2Cc2cc(C)c(C)o2)c1C | -9% | 1.01
CC(C)c1noc(CN2CC[C@H](NC(=O)c3ccccn3)[C@@H](O)C2)n1 | -2% | 0.42
Cc1noc(C)c1CN1CCCN(C(=O)c2n[nH]c3ccccc23)CC1 | 33% | -0.69
O=C(NCc1ccnc(-c2cccs2)c1)NC1CCOCC1 | 0% | -0.01
Cc1nnc(OCC2CC3(CCC3)C2)s1 | -3% | 0.43
C[C@@H](CNC(=O)c1cc(C(N)=O)cs1)c1ccc(F)c(F)c1 | -10% | 1.93
CCc1nnc2nc(N3CCN(C(=O)Cc4ccc(OC)c(OC)c4)CC3)cc(C)n12 | -3% | 0.39
CN1C[C@@H](NC(=O)N2CCN(c3cccs3)CC2)CCC1=O | 5% | -0.52
COc1cc(-c2ncc(C(=O)NCC3CC3)c(N(C)C3CCCCC3)n2)cc(OC)c1OC | -3% | 0.4
COCC(=O)N[C@@H]1CN(C(=O)c2ccc(N(C)C)nc2)C[C@H]1c1ccnn1C | -16% | 2.58
Cn1ncc2c(N3CC4CCC(O)CC4C3)ccnc21 (stereo unspecified) | -3% | 0.34
OCc1cc2n(n1)CCN(c1ncc(F)c(N3CCOCC3)n1)C2 | 6% | -0.95
CC(C)c1nnc(NCc2c(Cl)cnn2C)s1 | -7% | 1.39
O=C(NCc1cc[nH]n1)C(=O)N1CCc2c(Cl)cccc21 | -3% | 0.58
O=C(N[C@H](CO)Cc1cccnc1)c1cccc2c1OCC2 | 0% | 0.08
CCN1CCN(c2cc(C)nc3nc(CN4CCC5(CC4)OCCO5)nn23)CC1 | -16% | 2.07
Cc1ccc2nc(-c3ccccc3C)c(NC(=O)Nc3ccc(Cl)cc3)n2c1 | -7% | 0.91
CN1CCN(CC(=O)NC[C@@]23CCC[C@@H]2OCC3)CC1=O | 8% | -1.11
C[C@@H](Cc1ccccc1F)N1CCC(n2cc(C3CC3)nn2)CC1 | 8% | -1.06
Cn1cnc([C@@H]2CN(c3ncnc4c3OCCN4)C[C@H]2C(=O)N2CCOCC2)c1 | -5% | 0.91
COc1cccc(-c2nccn2CC(=O)N2CCNCC2)c1OC | -21% | 2.73
O=C(Cc1cccc(F)c1)N1C[C@H]2CCC[C@@H](O)[C@H]2C1 | -12% | 1.14
